Measured values as given in patent US10017542B2, “Antimicrobial peptides and methods of use thereof” (priority 2015, dated 2018).

Tested on: Porphyromonas gingivalis strains A7436 and HG405
Assay: In vitro bactericidal activity screening, endpoint titration
Conditions: last concentration giving greater than two-logs reduction in CFU vs. saline control

FAFAFKAFKKAFKKFKKAFKKAFGPGRFAKKFAKKFKKFAKKFAKFAFAF [RP-433]
Two-log Reduction Concentration (P. gingivalis A7436): 0.16 μM | Two-log Reduction Concentration (P. gingivalis HG405): 0.36 μM

FARKFLKKFKRFAKKFVRFAFAF [SEQ ID NO: 6]
Two-log Reduction Concentration (P. gingivalis A7436): 1.88 μM | Two-log Reduction Concentration (P. gingivalis HG405): 2.50 μM
